Experimental data taken from the supplement of paper PMC10441789.
This is one part of the list. Antibody binding of pooled human sera (four to six donors per pool; dilution not stated) to peptides of the Trypanosoma cruzi antigen TSSA on microarrays. Quantile-normalised fluorescence in arbitrary units, mean of duplicate arrays; higher = more binding. No active / inactive call. The uninfected pools are read here as the healthy donors of the same country. The strongest signals lie near the top of the scale (about 60,000).

Columns and labels:
Experiment in all cases: antibody binding signal (normalised fluorescence) (arbitrary fluorescence units); higher = stronger serum antibody binding to peptide
[1] = system: pooled sera of chronic Chagas disease patients, Bolivia
Method: (§1)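 Microarray of 15-residue peptides over residues 30-55 of Trypanosoma cruzi TSSAII, each with 1 to 10 substitutions at naturally variable positions, probed with one serum pool per country.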

[2] = system: pooled sera of chronic Chagas disease patients, Brazil
Method: as §1

[3] = system: pooled sera of chronic Chagas disease patients, Colombia
Method: as §1

[4] = system: pooled sera of chronic Chagas disease patients, Mexico
Method: as §1

[5] = system: pooled sera of chronic Chagas disease patients, USA
Method: as §1

[6] = system: pooled sera of uninfected people, Argentina
Method: as §1

[7] = system: pooled sera of uninfected people, Bolivia
Method: as §1

[8] = system: pooled sera of uninfected people, Brazil
Method: as §1

[9] = system: pooled sera of uninfected people, Colombia
Method: as §1

[10] = system: pooled sera of uninfected people, Mexico
Method: as §1

[11] = system: pooled sera of uninfected people, USA
Method: as §1

Sequence	antibody binding signal [1]	antibody binding signal [2]	antibody binding signal [3]	antibody binding signal [4]	antibody binding signal [5]	antibody binding signal [6]	antibody binding signal [7]	antibody binding signal [8]	antibody binding signal [9]	antibody binding signal [10]	antibody binding signal [11]
STPPSGKENKTATGG	8250	13800	762	6760	3700	2390	1230	177	740	279	387
PSGKDKKPATGEAPS	32200	42300	3460	4850	31200	823	867	157	182	107	134
TISTPPSGTENKPAA	46000	53200	1350	5300	40800	9660	1480	777	942	583	1300
PPSGTDNKPATGETP	39600	46100	5310	4950	24500	722	532	481	381	2000	356
SGTENKTATGGAPSQ	12700	21000	655	625	5100	601	362	244	213	470	221
TENKPATGEAPSPPG	48100	49900	304	610	40400	960	594	322	103	175	162
ENKTAAGGAPSPSGA	1620	523	7090	708	1160	431	206	511	186	297	223
GTEKKPATGGTPSQS	302	736	1390	2180	1110	302	966	1320	167	312	1140
TDNKTAAGETPSPSG	346	599	248	328	1890	156	355	245	136	273	2130
EKKPAAGGTPSPPGA	244	403	5630	326	1150	185	1100	2270	193	157	1180
TISTPPSGTDKKPAA	8240	44600	13500	49800	9640	2310	303	367	331	2950	693
PPSGKDNKPAAGGAP	1680	15500	1360	12500	10400	821	907	174	293	172	488
TDKKAATGGTPSQPG	659	966	2150	669	1080	442	118	905	1100	642	141
TISTPPSGTENKAAT	50100	52400	339	3250	25300	3050	593	426	712	455	663
DKKTATGEAPSQPGA	19200	39200	179	520	20300	267	107	185	141	326	170
PPSGKEKKTATGETP	663	2310	2000	3270	4760	478	619	104	249	130	171
NKAAAGGAPSQPGAS	379	14000	4340	474	459	1070	1340	253	382	252	1400
TEKKPAAGETPSQSG	246	6350	365	398	2030	97.8	271	309	762	320	862
KDNKTAAGGAPSQPG	207	1040	3680	278	343	281	130	162	191	89	148
GTDNKPAAGEAPSQS	21200	44200	1230	235	18000	110	699	321	106	376	93.7
TPPSGTDKKTATGEA	15100	25500	3760	33400	1770	217	168	501	200	706	130
STPPSGTDKKAAAGE	39700	38400	6380	27400	8650	851	191	188	218	2860	194
SGKDNKAAAGGTPSQ	284	1100	2050	1080	1700	163	237	347	581	100	114
KPATGGAPSPPGASS	1690	556	339	259	1310	359	997	141	145	109	210
PSGTDKKPAAGETPS	2960	32800	13500	3330	2680	189	735	537	1250	4080	289
GKDKKAATGETPSQS	283	6250	1710	1640	7180	213	104	102	186	79	108
SGKDNKAATGETPSP	2670	17200	612	450	11100	223	376	164	296	186	939

Sequence	antibody binding signal [1]	antibody binding signal [2]	antibody binding signal [3]	antibody binding signal [4]	antibody binding signal [5]	antibody binding signal [6]	antibody binding signal [7]	antibody binding signal [8]	antibody binding signal [9]	antibody binding signal [10]	antibody binding signal [11]
GTENKPAAGGAPSQP	7980	22400	1570	1960	2970	467	1720	727	345	304	185
SGTDNKAAAGGAPSQ	511	46600	4520	637	275	181	772	1760	279	189	328
GKDKKAAAGGAPSPP	195	158	1670	435	567	122	80.5	102	102	93	81.9
TEKKPATGGAPSQSG	852	3250	1820	2480	2540	343	1250	275	239	208	1030
GTEKKTAAGEAPSPS	273	433	878	838	7160	220	658	168	1080	144	116
PSGKENKPAAGGAPS	4180	11100	11000	10900	7750	8310	3500	159	279	497	237
GKDKKPATGETPSPS	6300	18200	5400	5540	18000	168	185	115	127	383	886
GKENKAATGGAPSPP	2780	15300	15800	13000	20700	542	218	124	171	149	150
PSGTENKAAAGGTPS	20500	45200	6890	5290	10200	1360	717	1480	612	520	300
KEKKPAAGGTPSQPG	205	232	1280	136	287	185	83.1	455	119	118	359
DNKPATGGTPSQPGA	963	16800	851	435	456	334	492	636	378	942	177
SGTEKKPAAGEAPSP	1010	11700	897	912	14800	92.9	678	424	104	248	513
SGKENKPATGGAPSQ	2020	17900	3640	4520	17400	8460	4170	133	212	373	228
PPSGKEKKPATGGTP	373	1590	1380	5150	3490	433	753	188	280	102	217
KKTATGEAPSQPGAS	8660	32000	231	200	14000	329	193	104	131	112	362
PPSGKDNKTAAGGTP	528	1830	4080	8830	4290	402	567	416	259	529	226
DKKPATGGAPSQPGA	675	17400	1530	971	1800	388	815	227	233	199	253
GTEKKAAAGGAPSQS	184	162	3860	570	534	140	358	251	92.7	86.3	117
EKKAAAGGTPSQPGA	206	1200	5700	397	1840	266	630	1570	171	290	758
PSGKDNKPAAGGTPS	540	4210	6350	5270	5420	1010	684	261	188	159	142
TEKKTAAGGAPSPPG	442	295	10800	1150	1890	212	174	241	561	348	243
GTENKPAAGGAPSPP	3830	6960	1440	1520	1480	418	1580	546	203	238	163
GKDKKAAAGGTPSQS	233	148	1680	619	1150	124	77.3	458	105	108	91.3
GTDKKAAAGGAPSQS	207	217	3780	493	396	125	162	146	94.6	114	117
SGKDKKPATGEAPSP	14200	43100	727	708	32400	922	349	123	738	104	144
EKKAAAGGTPSPPGA	229	251	5490	428	1920	141	776	1640	153	95.2	709
